From the supplement of paper PMC8728848
The other results are listed elsewhere or left out.

Assays:
Experiment in all cases: glycan array binding signal (z-score within array); higher = stronger binding
Details in all cases: glycan notation: IUPAC condensed, linker removed
Neu5Ac(a2-3)Gal(b1-4)Glc = target: Neu5Ac(a2-3)Gal(b1-4)Glc
In short: (§1)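 Glycan array data were curated from 3228 arrays in the Consortium for Functional Glycomics database and kept only where the protein sequence was available. Glycan names were converted to IUPAC-condensed notation, and columns mapping to the same glycan were averaged. The binding signal is a within-array Z-score, averaged across arrays of the same protein sequence at different concentrations or buffers and across linkers. Negative Z-scores can be read as non-binding.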

[1] = target: Neu5Ac(a2-3)Gal(b1-4)GlcNAc
In short: as §1

[2] = target: Neu5Ac(a2-3)Gal(b1-4)GlcNAc(b1-2)Man
In short: as §1

[3] = target: Neu5Ac(a2-3)Gal(b1-4)GlcNAc(b1-2)Man(a1-3)[GlcNAc(b1-4)][Neu5Ac(a2-3)Gal(b1-4)GlcNAc(b1-2)Man(a1-6)]Man(b1-4)GlcNAc(b1-4)GlcNAc
In short: as §1

[4] = target: Neu5Ac(a2-3)Gal(b1-4)GlcNAc(b1-2)Man(a1-3)[Neu5Ac(a2-3)Gal(b1-4)GlcNAc(b1-2)Man(a1-6)]Man(b1-4)GlcNAc(b1-4)GlcNAc
In short: as §1

[5] = target: Neu5Ac(a2-3)Gal(b1-4)GlcNAc(b1-2)Man(a1-3)[Neu5Ac(a2-3)Gal(b1-4)GlcNAc(b1-2)Man(a1-6)]Man(b1-4)GlcNAc(b1-4)[Fuc(a1-6)]GlcNAc
In short: as §1

[6] = target: Neu5Ac(a2-3)Gal(b1-4)GlcNAc(b1-2)Man(a1-3)[Neu5Ac(a2-6)Gal(b1-4)GlcNAc(b1-2)Man(a1-6)]Man(b1-4)GlcNAc(b1-4)GlcNAc
In short: as §1

[7] = target: Neu5Ac(a2-3)Gal(b1-4)GlcNAc(b1-2)[Neu5Ac(a2-3)Gal(b1-4)GlcNAc(b1-4)]Man(a1-3)[GlcNAc(b1-4)][Neu5Ac(a2-3)Gal(b1-4)GlcNAc(b1-2)[Neu5Ac(a2-3)Gal(b1-4)GlcNAc(b1-6)]Man(a1-6)]Man(b1-4)GlcNAc(b1-4)GlcNAc
In short: as §1

[8] = target: Neu5Ac(a2-3)Gal(b1-4)GlcNAc(b1-2)[Neu5Ac(a2-3)Gal(b1-4)GlcNAc(b1-4)]Man(a1-3)[GlcNAc(b1-4)][Neu5Ac(a2-3)Gal(b1-4)GlcNAc(b1-4)Man(a1-6)]Man(b1-4)GlcNAc(b1-4)GlcNAc
In short: as §1

[9] = target: Neu5Ac(a2-3)Gal(b1-4)GlcNAc(b1-2)[Neu5Ac(a2-3)Gal(b1-4)GlcNAc(b1-6)]Man(a1-6)[Neu5Ac(a2-3)Gal(b1-4)GlcNAc(b1-2)Man(a1-3)]Man(b1-4)GlcNAc(b1-4)GlcNAc
In short: as §1

[10] = target: Neu5Ac(a2-3)Gal(b1-4)GlcNAc(b1-2)[Neu5Ac(a2-3)Gal(b1-4)GlcNAc(b1-6)]Man(a1-6)[Neu5Ac(a2-3)Gal(b1-4)GlcNAc(b1-2)Man(a1-3)][GlcNAc(b1-4)]Man(b1-4)GlcNAc(b1-4)GlcNAc
In short: as §1

[11] = target: Neu5Ac(a2-3)Gal(b1-4)GlcNAc(b1-3)Gal
In short: as §1

[12] = target: Neu5Ac(a2-3)Gal(b1-4)GlcNAc(b1-3)Gal(b1-3)GlcNAc
In short: as §1

[13] = target: Neu5Ac(a2-3)Gal(b1-4)GlcNAc(b1-3)Gal(b1-4)GlcNAc
In short: as §1

[14] = target: Neu5Ac(a2-3)Gal(b1-4)GlcNAc(b1-3)Gal(b1-4)GlcNAc(b1-2)Man(a1-3)[Neu5Ac(a2-3)Gal(b1-4)GlcNAc(b1-3)Gal(b1-4)GlcNAc(b1-2)Man(a1-6)]Man(b1-4)GlcNAc(b1-4)GlcNAc
In short: as §1

[15] = target: Neu5Ac(a2-3)Gal(b1-4)GlcNAc(b1-3)Gal(b1-4)GlcNAc(b1-3)Gal(b1-4)GlcNAc
In short: as §1

[16] = target: Neu5Ac(a2-3)Gal(b1-4)GlcNAc(b1-3)Gal(b1-4)GlcNAc(b1-3)Gal(b1-4)GlcNAc(b1-2)Man(a1-3)[Neu5Ac(a2-3)Gal(b1-4)GlcNAc(b1-3)Gal(b1-4)GlcNAc(b1-3)Gal(b1-4)GlcNAc(b1-2)Man(a1-6)]GalNAc
In short: as §1

[17] = target: Neu5Ac(a2-3)Gal(b1-4)GlcNAc(b1-3)Gal(b1-4)GlcNAc(b1-3)GalNAc
In short: as §1

[18] = target: Neu5Ac(a2-3)Gal(b1-4)GlcNAc(b1-3)Gal(b1-4)GlcNAc(b1-3)[Neu5Ac(a2-3)Gal(b1-4)GlcNAc(b1-3)Gal(b1-4)GlcNAc(b1-6)]GalNAc
In short: as §1

[19] = target: Neu5Ac(a2-3)Gal(b1-4)GlcNAc(b1-3)Gal(b1-4)GlcNAc(b1-6)[Gal(b1-3)]GalNAc
In short: as §1

[20] = target: Neu5Ac(a2-3)Gal(b1-4)GlcNAc(b1-3)Gal(b1-4)[Fuc(a1-3)]GlcNAc
In short: as §1

[21] = target: Neu5Ac(a2-3)Gal(b1-4)GlcNAc(b1-3)GalNAc
In short: as §1

[22] = target: Neu5Ac(a2-3)Gal(b1-4)GlcNAc(b1-3)[Neu5Ac(a2-3)Gal(b1-4)GlcNAc(b1-6)]GalNAc
In short: as §1

[23] = target: Neu5Ac(a2-3)Gal(b1-4)GlcNAc(b1-6)GalNAc
In short: as §1

[24] = target: Neu5Ac(a2-3)Gal(b1-4)GlcNAc(b1-6)[Gal(b1-3)]GalNAc
In short: as §1

[25] = target: Neu5Ac(a2-3)Gal(b1-4)GlcNAc(b1-6)[Neu5Ac(a2-3)Gal(b1-3)]GalNAc
In short: as §1

[26] = target: Neu5Ac(a2-3)Gal(b1-4)GlcNAc6S
In short: as §1

[27] = target: Neu5Ac(a2-3)Gal(b1-4)[Fuc(a1-3)]GlcNAc
In short: as §1

[28] = target: Neu5Ac(a2-3)Gal(b1-4)[Fuc(a1-3)]GlcNAc(b1-2)Man
In short: as §1

[29] = target: Neu5Ac(a2-3)Gal(b1-4)[Fuc(a1-3)]GlcNAc(b1-3)Gal
In short: as §1

[30] = target: Neu5Ac(a2-3)Gal(b1-4)[Fuc(a1-3)]GlcNAc(b1-3)Gal(b1-4)GlcNAc
In short: as §1

[31] = target: Neu5Ac(a2-3)Gal(b1-4)[Fuc(a1-3)]GlcNAc(b1-3)Gal(b1-4)[Fuc(a1-3)]GlcNAc(b1-3)Gal(b1-4)[Fuc(a1-3)]GlcNAc
In short: as §1

[32] = target: Neu5Ac(a2-3)Gal(b1-4)[Fuc(a1-3)]GlcNAc(b1-3)GalNAc
In short: as §1

[33] = target: Neu5Ac(a2-3)Gal(b1-4)[Fuc(a1-3)]GlcNAc(b1-6)[Gal(b1-3)]GalNAc
In short: as §1

[34] = target: Neu5Ac(a2-3)Gal(b1-4)[Fuc(a1-3)]GlcNAc(b1-6)[Neu5Ac(a2-3)Gal(b1-3)]GalNAc
In short: as §1

[35] = target: Neu5Ac(a2-3)Gal(b1-4)[Fuc(a1-3)]GlcNAc6S
In short: as §1

[36] = target: Neu5Ac(a2-3)Gal6S(b1-4)GlcNAc
In short: as §1

[37] = target: Neu5Ac(a2-3)Gal6S(b1-4)[Fuc(a1-3)]GlcNAc
In short: as §1

B1: Cohesin-marm-DC-ASGPR-CRD (protein)
chain: LDITSHHHHHHDDLDAVRIKVDTVNAKPGDTVRIPVRFSGIPSKGIANCDFVYSYDPNVLEIIEIEPGDIIVDPNPDKSFDTAVYPDRKIIVFLFAEDSGTGAYAITKDGVFATIVAKVKEGAPNGLSVIKFVEVGGFANNDLVEQKTQFFDGGVNVGDTTEPATPTTPVTTPTTTDDLDAASCPINWVEHQGSCYWFSRSGKTWPEAERYCQLENTHLVVINSREEQNFVQAHLGSAYTWMGLSDPEGVWKWVDGTDYSSGFQNWKPGQPDDWQGHGLGGGEDCAHFHPDGRWNDDVCQRSYHWVCEAGLTQASQDSH
- glycan array binding signal (z-score) (Neu5Ac(a2-3)Gal(b1-4)Glc): -0.429
- glycan array binding signal (z-score) [1]: -0.447
- glycan array binding signal (z-score) [2]: -0.077
- glycan array binding signal (z-score) [3]: -0.448
- glycan array binding signal (z-score) [4]: -0.325
- glycan array binding signal (z-score) [5]: -0.449
- glycan array binding signal (z-score) [6]: -0.442
- glycan array binding signal (z-score) [7]: -0.254
- glycan array binding signal (z-score) [8]: -0.46
- glycan array binding signal (z-score) [9]: -0.331
- glycan array binding signal (z-score) [10]: -0.446
- glycan array binding signal (z-score) [11]: -0.455
- glycan array binding signal (z-score) [12]: -0.414
- glycan array binding signal (z-score) [13]: -0.444
- glycan array binding signal (z-score) [14]: -0.347
- glycan array binding signal (z-score) [15]: -0.457
- glycan array binding signal (z-score) [16]: 0.247
- glycan array binding signal (z-score) [17]: -0.389
- glycan array binding signal (z-score) [18]: -0.336
- glycan array binding signal (z-score) [19]: -0.346
- glycan array binding signal (z-score) [20]: -0.45
- glycan array binding signal (z-score) [21]: -0.455
- glycan array binding signal (z-score) [22]: -0.447
- glycan array binding signal (z-score) [23]: 2.74
- glycan array binding signal (z-score) [24]: -0.422
- glycan array binding signal (z-score) [25]: -0.459
- glycan array binding signal (z-score) [26]: -0.398
- glycan array binding signal (z-score) [27]: -0.441
- glycan array binding signal (z-score) [28]: -0.386
- glycan array binding signal (z-score) [29]: -0.446
- glycan array binding signal (z-score) [30]: -0.388
- glycan array binding signal (z-score) [31]: -0.442
- glycan array binding signal (z-score) [32]: -0.237
- glycan array binding signal (z-score) [33]: -0.428
- glycan array binding signal (z-score) [34]: -0.275
- glycan array binding signal (z-score) [35]: -0.434
- glycan array binding signal (z-score) [36]: -0.447
- glycan array binding signal (z-score) [37]: -0.45
